Results from publication PMC7819943, “Rice protein-binding microarrays: a tool to detect cis-acting elements near promoter regions in rice”.
Some of the results follow.

What follows are sequences tested against T1, OsWOX13 (Oryza sativa, UniProt Q5QMM3 1-267) (assay: protein-binding microarray (RPBM); PBS, 2% BSA, 51.3 ng/ul salmon testes DNA, 50 uM zinc acetate, 200 nM TF, 25 C, 1 h; high values mean tight binding). Details: protein: recombinant; tags: N-terminal polyhistidine and DsRed monomer fusion (pET32a); label: CyDye5-dUTP incorporated in the synthesized complementary strand; 3' TTTTT single-stranded linker to array surface; dsDNA, one strand shown.
T1 sequence: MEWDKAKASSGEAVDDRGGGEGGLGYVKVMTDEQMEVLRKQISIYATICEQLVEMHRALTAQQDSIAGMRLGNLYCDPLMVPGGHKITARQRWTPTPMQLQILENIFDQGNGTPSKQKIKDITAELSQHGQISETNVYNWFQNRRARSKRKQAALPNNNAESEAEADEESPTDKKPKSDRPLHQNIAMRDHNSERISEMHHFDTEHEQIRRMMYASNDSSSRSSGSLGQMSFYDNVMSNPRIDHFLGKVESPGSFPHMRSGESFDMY
Procedure, shortened: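 Transcription factors were made in E. coli BL21-CodonPlus as N-terminal fusions to a polyhistidine tag and DsRed, then purified on Ni–NTA. After primer extension with Cy5-dUTP and blocking with 2% BSA, a custom Agilent array was exposed for 1 h at 25 °C to 200 nM protein in PBS, 2% BSA, salmon testes DNA and 50 µM zinc acetate. Washed arrays were scanned on an Axon 4000B, and the binding signal is per-feature fluorescence intensity in arbitrary units.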

Sequence	binding signal
ATAAGAAATTAATCGTTCGCTAATAGCTTATTTTATTTTGCGGAGTCACCTAGTGCAG	5040 fluorescence intensity (a.u.)
TTTATTCATAATTTACTTGTTTCCCGGAGAACTTTTACTTCGGAGTCACCTAGTGCAG	3210 fluorescence intensity (a.u.)
CACCCATTATCCATGCTAATTAATTTGCATTTAGAGATCACGGAGTCACCTAGTGCAG	18000 fluorescence intensity (a.u.)
GATGATCAGTTTGTCCAATCCCTATTCCATTTTGAACCTTCGGAGTCACCTAGTGCAG	3320 fluorescence intensity (a.u.)
GAGATTGACGATCTAGGAATCAAATTTAGTTCAAGCCATCCGGAGTCACCTAGTGCAG	40300 fluorescence intensity (a.u.)
TAAGCCTAATTAATTTGTCATTAGCAAATGTTTACTATAGCGGAGTCACCTAGTGCAG	30300 fluorescence intensity (a.u.)
CGGTGGTTTTGATTTCTCCTGATTGCTGAGGCGATTGCCCCGGAGTCACCTAGTGCAG	11300 fluorescence intensity (a.u.)
AAAGATTGGCACGCATTCTTATCTAGTCAGTTTCTCTTCACGGAGTCACCTAGTGCAG	22500 fluorescence intensity (a.u.)
ATGGGAGGTGAGATTGGGATTGGGAAATAAATGAATGGCTCGGAGTCACCTAGTGCAG	5250 fluorescence intensity (a.u.)
ACGAAACAAACTTCAGAGTTAATTTGCCCTTGGCACAGGCCGGAGTCACCTAGTGCAG	3570 fluorescence intensity (a.u.)
TGAGGAATTATATTGTTAATTCCCCTCTCATTTGAGTGCTCGGAGTCACCTAGTGCAG	4720 fluorescence intensity (a.u.)
CGATAATTTCATACATACAATTTTATGGTATGAAGACTGACGGAGTCACCTAGTGCAG	8690 fluorescence intensity (a.u.)
GCTGGCTATATATGATTGGGGCACCTATAGTCTTATTATGCGGAGTCACCTAGTGCAG	3330 fluorescence intensity (a.u.)
TACTAGATTGCTATATTATGGGACGGAGGGAGTAGAGGTTCGGAGTCACCTAGTGCAG	19300 fluorescence intensity (a.u.)
CTGATGGATTAACATATGGAGTACTTGGTCACTAACCTTACGGAGTCACCTAGTGCAG	3500 fluorescence intensity (a.u.)
CTGATGATGATGGCAGTGACGATTGCTAACACCCTGGTGCCGGAGTCACCTAGTGCAG	17800 fluorescence intensity (a.u.)
AAGATCGATCAGGAAAATAATTGGAAAGTTCATTGCCACGCGGAGTCACCTAGTGCAG	3550 fluorescence intensity (a.u.)
AAGAAGAATCTATCTATCTATCTATCTATCAATCTCTATACGGAGTCACCTAGTGCAG	3320 fluorescence intensity (a.u.)
TTTCTCTTGATTGCACCTGCATTTTCTTGGGGTCGTTTATCGGAGTCACCTAGTGCAG	23000 fluorescence intensity (a.u.)
GGAATGTAATTACACTACAACTTACATATAACTACAATATCGGAGTCACCTAGTGCAG	4800 fluorescence intensity (a.u.)
CGATCAATTTCCCATTTCAATCTCTCTCAAATTCCCATGTCGGAGTCACCTAGTGCAG	6020 fluorescence intensity (a.u.)

Sequence	binding signal
AAATTACATTTAGGTAATTGATGCACAACACTTAATTTTCCGGAGTCACCTAGTGCAG	6600 fluorescence intensity (a.u.)
TAACCAATCAGATTCAGCGGCGGCTTACTGTGTGTCCGTGCGGAGTCACCTAGTGCAG	3800 fluorescence intensity (a.u.)
TCAAAACAAACTGAAATTTGACCCGAAAATGTATGCGCGGCGGAGTCACCTAGTGCAG	4320 fluorescence intensity (a.u.)
TCTGACAGAGTTTTGATATGGATGATTTCTGTTAGTGGTTCGGAGTCACCTAGTGCAG	30600 fluorescence intensity (a.u.)
GGCAAAATAGACGTTTTCTTCTTTCTTTTCTTAACGGCCCCGGAGTCACCTAGTGCAG	3200 fluorescence intensity (a.u.)
CTAATAATAAAATAAATTGCAGATTCTGCCTGCAAACTATCGGAGTCACCTAGTGCAG	6570 fluorescence intensity (a.u.)
GACAAGTAATTCGATTTTGATAGCTTTCAGTTTACGTTCCCGGAGTCACCTAGTGCAG	4910 fluorescence intensity (a.u.)
AAGACATTAGACAACTTGACAAATTTTCTTCTCCATTTCGCGGAGTCACCTAGTGCAG	5770 fluorescence intensity (a.u.)
TCTCTTAATTAATATAGTGCCACATAAGATAAAAGTTCTACGGAGTCACCTAGTGCAG	10400 fluorescence intensity (a.u.)
AATTCAAGCTCATCACTGATTTGATAAGACATTAAGATAGCGGAGTCACCTAGTGCAG	4050 fluorescence intensity (a.u.)
AGAAGCAGGCAAACAATCAATCATCAGCAATTAACAGGTACGGAGTCACCTAGTGCAG	10600 fluorescence intensity (a.u.)
TGCAAATTTACCACTACTTTGAATCGTTATTGCAAAACTGCGGAGTCACCTAGTGCAG	3870 fluorescence intensity (a.u.)
TTCACGTCAAAATTAGAAATTTGGTTGAAATTGGAACGATCGGAGTCACCTAGTGCAG	4920 fluorescence intensity (a.u.)
ACTTGATAATACATTTACATGCAGCGTAATGATGCCAGTCCGGAGTCACCTAGTGCAG	5520 fluorescence intensity (a.u.)
GATGGACCAATTTGATTGTTGTTGGATTCTACGATGCATGCGGAGTCACCTAGTGCAG	9950 fluorescence intensity (a.u.)
AACTAGATTACATCACTTGTCGGGTGATACTTTACATGTTCGGAGTCACCTAGTGCAG	5770 fluorescence intensity (a.u.)
TTGTGATTGTCTATGTTGTAATGTGTAATTCTCAAAATAACGGAGTCACCTAGTGCAG	13800 fluorescence intensity (a.u.)
GATGTGACGTGATGTGATGGAAAGTTGGGAGTTGGGGAAACGGAGTCACCTAGTGCAG	5400 fluorescence intensity (a.u.)
TTTGATTGTTTCCATTTGCAATTTCTAAATACGAACCTGCCGGAGTCACCTAGTGCAG	57500 fluorescence intensity (a.u.)
TTAAACTTTAGATTGCATGTTGAACTTTAGAATTTAGTGGCGGAGTCACCTAGTGCAG	13100 fluorescence intensity (a.u.)
CATGAAATCATGGCCAATGATTTGATCTGCACGAACTGCCCGGAGTCACCTAGTGCAG	18700 fluorescence intensity (a.u.)
